In PubChem BioAssay AID1466 (National Center for Advancing Translational Sciences (NCATS), 2008):
About 10 (0.005%) of roughly 200,000 compounds were called active. The inconclusive results got no clear call from the source; some entries with a clear call stand among them for comparison. Calls follow the shape of the dose curve; as a rule, active = well fitted inhibition curve with a large enough effect; inconclusive = small, poorly fitted or top-dose-only effect, or effect the other way, or another doubt; inactive = no such curve, though single readings can be large or run the other way. Potencies of inconclusive entries are left out as doubtful fits.

Target: Lysosomal alpha-glucosidase (Homo sapiens) (UniProt P10253)
Test: qHTS Assay for Inhibitors of Human alpha-Glucosidase as a Potential Chaperone Treatment of Pompe Disease;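 as to activity change, negative = inhibition: plate controls were uninhibited enzyme wells for no effect and no-enzyme background for full effect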
Settings: purified human GAA, 4-MU-alpha-glucoside fluorescence; activity change, negative = inhibition: at 76.9 µM (top of the series) unless noted
Excerpt: NIH Chemical Genomics Center [NCGC] NIH Molecular Libraries Probe Production centers Network [MLPCN] MLPCN Grant: 1R03MH084841-01 Assay Submitter (PI): Wei Zheng NCGC Assay Overview: Alpha-glucosidase is responsible for hydrolysis of terminal, non-reducing 1,4-linked alpha-D-glucose residues with release of alpha-D-glucose. It is a lysosomal hydrolase that is required for the degradation of a small percentage (1-3%) of cellular glycogen in human. Deficiency of this enzyme results in glycogen-storage disease type II (GSDII), also referred to as Pompe disease, an autosomal recessive disorder. Structurally normal glycogen is accumulated in lysosomes and cytoplasm in affected patients, primarily in muscle tissues. Excessive glycogen storage within lysosomes may interrupt normal functioning of other organelles and leads to cellular injury. In turn, this leads to enlargement and dysfunction of the entire organ involved (eg, cardiomyopathy and muscle weakness). It has reported that the improper folding and trafficking of alpha-glucosidase resulting from the genetic mutations may account for a significant number of Pompe patients. […] We optimized this alpha-glucosidase assay in 1536-well plate format for identifying the novel small molecule inhibitors with the structures other than the sugar analogs in order to develop the new pharmacological chaperones.
NCGC Assay Protocol Summary: This is a fluorogenic enzyme assay with 4-methylumbelliferyl-alpha-D-[…] as the substrate and human alpha-glucosidase as the enzyme preparation. Upon the hydrolysis of this fluorogenic substrate, the resulting product, 1. 4-methyllumbelliferone, can be excited at 365 nm and emits at 440 nm which can be detected by a standard fluorescence plate reader. Data were normalized to the controls for basal activity (without enzyme) and 100% activity (with enzyme). In the AC50 values were determined from concentration-response data modeled with the standard Hill equation. Assay buffer: 50 mM citric acid (titrated with potassium phosphate to pH 5.0), 0.005% Tween-20, pH 5.0. (pH 5.0 is an optimal condition for this enzyme assay) 1536-well assay protocol for the human alpha-glucosidase: (1) Add 2 ul/well of enzyme (4 nM final) (2) Add 23 nL compounds in DMSO solution. The final titration was 0.7 nM to 77 uM. (3) Add 1 ul of substrate (400 uM final) (4) Incubate at room temperature for 20 min. (5) Add 2 ul stop solution (1M NaOH and 1M Glycine mixture, pH 10) (6) Detect the assay plate in a ViewLux plate reader (PerkinElmer) with Ex=365 nm and Em=440nm. Keywords: Alpha-glucosidase, Pompe Disease, pharmacological chaperone, chaperone therapy, high throughput screening, alpha-glucosidase inhibitor, MLSMR, MLSCN, NIH Roadmap, qHTS and NCGC
Potency is read from the fitted curve at half-maximal effect; tags tell the direction and shape of the fitted curve.

Row | SMILES | Potency | activity change, negative = inhibition
1 | COc1ccc(N2C(=O)[C@@H]3[C@H](C2=O)[C@H](C(=O)c2ccc(OC(C)=O)cc2)N2N=CC=C[C@@H]32)cc1 | inactive | –
2 | Cc1ccccc1N=Nc1c(C)[nH]n(-c2ccccc2)c1=O | – | inconclusive: 8.72% [activator]
3 | Cc1cccc(N2CCN(C(=S)Nc3ccc4nc(N5CCN(C)CC5)cc(C)c4c3)CC2C)c1 (configuration not stated) | inconclusive [inhibitor, single point] | –
4 | Cc1cccc(NC(=O)Cn2c(O)c(N=NC(=O)c3ccncc3)c3ccccc32)c1 | inconclusive [inhibitor, single point] | –
5 | CC(=O)NN1C(=O)/C(=C/c2ccc(C(C)C)cc2)SC1=S | inconclusive [inhibitor, single point] | –
6 | O=C(Cn1cc(C(F)(F)F)ccc1=O)N1CCN(S(=O)(=O)c2ccccc2)CC1 | inconclusive [inhibitor, partial curve] | –
7 | CCOC(=O)N1CCN(C(=O)c2cccn3c(=O)c4sccc4nc23)CC1 | inconclusive [activator, partial curve] | –
8 | O=C(NCC(=O)N(c1ccccc1)C(C(=O)NC1CCCCC1)c1cccnc1)c1cccs1 (configuration not stated) | – | inconclusive: 13.6% [activator]
9 | O=C1C(=O)N2C(=C1C(=O)N1CCCCCC1)c1ccccc1CC21CCCC1 | – | inactive: 3.78% [at 15.4 µM]
10 | O=C1[C@@H]2[C@@H]3C[C@@H]([C@H]4ON=C(c5ccc(Cl)cc5)[C@@H]34)[C@@H]2C(=O)N1C1CCCCC1 | inconclusive [inhibitor, single point] | –
11 | O=C(Oc1ccc2c3c(c(=O)oc2c1)CCCC3)c1cccs1 | inconclusive [activator, partial curve] | –
12 | CCc1ccc(C2CC(=O)NC(SCC(=O)OC(C)C)=C2C#N)cc1 (configuration not stated) | inconclusive [inhibitor, single point] | –
13 | Cc1ccc(S(=O)(=O)c2cc3c(=O)n4cccc(C)c4nc3n(Cc3ccco3)c2=N)cc1C | inconclusive [activator, partial curve] | –
14 | O=C(COC(=O)C1(c2cccc(F)c2)CCCC1)NCc1ccc2c(c1)OCO2 | – | inconclusive: -15.3% [inhibitor]
15 | O=c1oc2ccc(Br)cc2cc1S(=O)(=O)c1ccc(F)cc1 | inactive | –
16 | COc1ccc2cc(/C(C)=N/NC(=S)Nc3cc(S(=O)(=O)N4CCOCC4)ccc3N3CCOCC3)ccc2c1 | inconclusive [inhibitor, single point] | –
17 | O=C(NCCc1ccccc1)C1CCN(S(=O)(=O)c2ccc(-c3nn[nH]n3)cc2)CC1 | inconclusive [inhibitor, partial curve] | –
18 | Cc1cc(C)nc(N2CCCC(C(=O)NC3CCCC3)C2)n1 (configuration not stated) | inconclusive [inhibitor, partial curve, poor fit] | –
19 | CN(C)S(=O)(=O)Oc1ccc(C(=O)Nc2cccc(C(F)(F)F)c2)cc1 | inconclusive [inhibitor, partial curve] | –
20 | COc1ccc(Cl)cc1-c1n[nH]c(=S)n1C | – | inconclusive: -15.8% [inhibitor]
21 | CC(O)CNCCOc1cccc(Oc2ccccc2)c1 (configuration not stated) | inactive | –
22 | Cc1cccc2c(=O)c(Br)c(C)n(Cc3ccccc3)c12 | – | inconclusive: 5.56% [activator]
23 | Cc1ccc(CN=C(N)Nc2nc(C)cc(C)n2)cc1 | – | inconclusive: 8.65% [activator]

Row | SMILES | Potency | activity change, negative = inhibition
24 | CCOC(=O)CNc1c(-c2ccc(O)cc2)nc2ccc(Cl)cn12 | inactive | –
25 | CCCc1cc(=O)oc2cc(Oc3ncccn3)ccc12 | inconclusive [activator, partial curve] | –
26 | CN(CC(=O)N1CCN(c2ccccc2)CC1)S(=O)(=O)c1cnc[nH]1 | inconclusive [inhibitor, partial curve] | –
27 | C=CCOC(=O)C1=C(C)OC(N)=C(C#N)C1c1c(C)nn(-c2ccccc2)c1Cl (configuration not stated) | inconclusive [inhibitor, single point] | –
28 | CCOC(=O)c1c(NC(C)=O)sc2c(OCCN(CC)CC)c(Br)ccc12 | inactive | –
29 | O=C(CN(c1ccc2c(c1)OCCO2)S(=O)(=O)c1ccccc1)Nc1ccc2c(c1)OCO2 | inconclusive [inhibitor, partial curve, poor fit] | –
30 | COc1ccc(S(=O)(=O)N2CCCCCC2)cc1N(C)S(=O)(=O)c1ccc(C)cc1 | inconclusive [inhibitor, full curve, poor fit] | –
31 | CCOc1ccc(NC(=O)CN2CCN(CC(=O)Nc3ccc(Cl)c(C(F)(F)F)c3)CC2)cc1 | – | inconclusive: -15.1% [inhibitor]
32 | CCOc1ccc(NC(=O)c2cn(-c3ccc(OCC)cc3)c(=O)c3cc(OC)c(OC)cc23)cc1 | inconclusive [inhibitor, single point] | –
33 | S=C(Nc1ccc(Oc2ccccc2)cc1)N(CCCN1CCOCC1)Cc1ccccn1 | inactive | –
34 | CCn1c(SCc2ccccc2)nnc1-c1cccnc1 | – | inconclusive: 25.8% [activator]
35 | COC(=O)c1ccc(OCC(=O)c2ccccc2OC)cc1 | – | inconclusive: -16.8% [inhibitor]
36 | Cn1c(=O)c(C(=O)COc2ccc(C#N)cc2)c(N)n(Cc2ccccc2)c1=O | inconclusive [inhibitor, single point] | –
37 | CC(=O)/C(=C/N(C)C)C(=O)Nc1ccc(Cl)cc1Cl | – | inconclusive: 7.77% [activator]
38 | Fc1ccc(-c2nnc(CSc3nnc4ccccn34)o2)cc1 | inactive | –
39 | COCCn1c(Cc2ccccc2)nnc1SCC(=O)Nc1ccccc1 | – | inconclusive: 9.36% [activator]
40 | CCOCCCn1c(=NC(C)=O)c(C(=O)OCC)cc2c(=O)n3ccccc3nc21 | inconclusive [activator, partial curve] | –
41 | c1ccc(-n2ncc3c(NCc4cccnc4)ncnc32)cc1 | inconclusive [activator, single point] | –
42 | CCc1c(C)c2cc(Cl)c(O)c(CN3CCCCC3)c2oc1=O | inconclusive [activator, partial curve] | –
43 | CC1=C(c2ccc(F)cc2)[N+](=O)C(C)(C)N1[O-] | – | inconclusive: 16.2% [activator]
44 | O=C(O)CCCNS(=O)(=O)/C=C/c1ccccc1 | inconclusive [inhibitor, single point] | –
45 | CCOC(=O)C1=C(CC)OC(N)=C(C#N)C1c1ccc(NC(C)=O)cc1 (configuration not stated) | – | inconclusive: -20.1% [inhibitor]
46 | c1ccc(C2C3=C(Nc4ncnn42)c2ccccc2CCC3)cc1 (configuration not stated) | inconclusive [inhibitor, partial curve, poor fit] | –

Row | SMILES | Potency | activity change, negative = inhibition
47 | O=C(CN1CCCCC1)Nc1c2c(nc3ccccc13)N(c1ccccc1)CC2 | inconclusive [activator, partial curve] | –
48 | COc1c(OC(C)=O)ccc(/C=C/c2ccc3ccccc3n2)c1[N+](=O)[O-] | inconclusive [inhibitor, full curve] | –
49 | Cc1ccc(CN2CCN(/N=C/c3cccs3)CC2)cc1 | inconclusive [inhibitor, single point] | –
50 | O=C(C1Cc2ccccc2CN1S(=O)(=O)c1ccc(F)cc1)N1CCCCC1 (configuration not stated) | – | inconclusive: -15.5% [inhibitor]
51 | CCN1c2ccccc2-c2nc3ccccc3n2C1c1cccnc1 (configuration not stated) | inconclusive [activator, partial curve] | –
52 | Cc1[nH][nH]c(=O)c1C(c1ccc(-c2ccc(F)cc2)o1)c1c(C)[nH][nH]c1=O | inactive | –
53 | CCOc1ccc(NC(=O)N(CCN2CCOCC2)Cc2ccc3c(c2)CCCN3CC)cc1 | inactive | –
54 | CC1(C)Nc2ccc(O)cc2-c2c1ssc2=S | inactive | –
55 | COc1ccc(Cl)cc1NC(=O)CSc1nnc(-c2ccncc2)n1CC1CCCO1 (configuration not stated) | inconclusive [inhibitor, single point] | –
56 | COc1ccc(C(=O)Nc2cccc3c2C(=O)NC3=O)cc1S(=O)(=O)N1CCOCC1 | – | inconclusive: 16.2% [activator]
57 | COc1ccc(-c2cc(Nc3ccccc3NC(=O)C(F)(F)F)n(CCC#N)n2)cc1 | inactive | –
58 | CC(=O)c1ccc(NC(=O)Nc2ccc(Cl)cc2)cc1 | – | inconclusive: -16% [inhibitor]
59 | CCOc1cc(-c2nc3ccccn3c2NCC2CCCO2)ccc1O (configuration not stated) | inactive | –
60 | COC(=O)CNC(c1ccccc1)c1cc(Br)ccc1NC(C)=O (configuration not stated) | – | inconclusive: 18.7% [activator]
61 | CC(C)CC(=O)NC(c1ccccc1Cl)c1c(O)ccc2ccccc12 (configuration not stated) | – | inconclusive: 15.1% [activator]
62 | CCOc1ccc(CC(=O)N2CCN(c3ccc(N4CCOCC4)nn3)CC2)cc1OCC | inconclusive [activator, partial curve] | –
63 | CC(C)(C)c1ccc(OCCCNCc2ccccc2)cc1 | inconclusive [inhibitor, single point] | –
64 | CC(=O)c1ccc(N(C(=O)Cc2c[nH]c3ccccc23)C(C(=O)NC2CCCCC2)c2cccs2)cc1 (configuration not stated) | inconclusive [inhibitor, partial curve] | –
65 | CSc1ccc(/C=C(/NC(=O)c2ccc(C)cc2)C(=O)Nc2cccc(F)c2)cc1 | – | inconclusive: 16.2% [activator]
66 | Cc1[nH]nc2c1-c1nc3ccccc3nc1C(C)(C)C2 | inconclusive [activator, partial curve] | –
67 | Cc1cc(N2CCCCC2)nc2c(C)cccc12 | inconclusive [activator, single point] | –
